The campaign covered roughly 39,000 compounds. About 220 (0.56%) showed activity. This is one part of the list.

Relative growth data for 39 compounds are collected here from the supplement of paper PMC9446081.
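Also: static incubation at 37 °C against the wild-type strain, values averaged over two biological replicates.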

The assay has as its system Escherichia coli K-12 BW25113. Put plainly: relative growth (OD600 normalised to plate interquartile mean) (fraction); higher = less growth inhibition, active = 0.2 or less. To be noted: 50 µM; LB; incubation time: overnight (16-24 h).
Turning to `COc1ccc(S(=O)(=O)Nc2ccc3c(c2)CC(=O)N([C@H](C)CO)C[C@H](C)[C@H](CN(C)S(=O)(=O)c2cccs2)O3)cc1`, the relative growth is inactive: 1.02.

As for `Cc1cc(C(=O)Nc2cccc3c2O[C@H](CN(C)S(=O)(=O)c2ccc(F)cc2)[C@@H](C)CN([C@H](C)CO)C3=O)n(C)n1`, the relative growth is inactive: 0.985.

With `CC(C(=O)O)c1ccc2c(c1)Cc1cccnc1O2` (centres undefined), the relative growth is inactive: 0.302.

For the compound `CN(c1cccc(C(N)=O)c1)S(C)(=O)=O`, the relative growth was inactive: 0.994.

With `C[C@H](CO)N1C[C@H](C)[C@@H](CN(C)C(=O)CN(C)C)Oc2ncc(C#CC3(O)CCCC3)cc2C1=O`, the relative growth is inactive: 0.982.

In the case of `CS(=O)(=O)N1C[C@H](O)COC[C@H]2O[C@@H](CC(=O)NCc3ccccc3)CC[C@@H]21`, the relative growth is inactive: 0.998.

In the case of `C[C@@H]1CN([C@H](C)CO)C(=O)c2cccc(NC(=O)Nc3ccc(F)cc3)c2O[C@H]1CN(C)Cc1ccc(-c2ccccc2)cc1`, the relative growth is inactive: 0.977.

As for `C[C@H]1CCCCO[C@@H](CN(C)C(=O)Nc2ccc3c(c2)OCO3)[C@@H](C)CN([C@@H](C)CO)C(=O)c2cc(NS(=O)(=O)c3cccs3)ccc2O1`, the relative growth was inactive: 0.999.

Turning to `Cc1noc(C)c1NC(=O)Nc1ccc2c(c1)C(=O)N([C@@H](C)CO)C[C@@H](C)[C@H](CN(C)C(=O)Nc1cccc3ccccc13)OCCCC[C@H](C)O2`, the relative growth was inactive: 1.04.

As to `O=C1NCCN1c1ncc([N+](=O)[O-])s1`, the relative growth is active: 0.0407.

Take `C[C@@H]1CN([C@H](C)CO)C(=O)c2cc(NS(=O)(=O)c3cn(C)cn3)ccc2O[C@H]1CN(C)S(=O)(=O)c1cn(C)cn1`: the relative growth is inactive: 0.893.

Regarding `COc1cc(C(=O)O)ccc1NC(=O)[C@@H]1N[C@@H](CC(C)(C)C)[C@](C#N)(c2ccc(Cl)cc2F)[C@H]1c1cccc(Cl)c1F`, the relative growth was inactive: 1.01.

`CO[C@@]1(CNS(C)(=O)=O)CCSC1`: the relative growth is inactive: 0.965.

On to `Cc1c(C)c(C)c(CSc2ccccc2N)c(C)c1C`, for which the relative growth was inactive: 1.01.

As to `C[C@H](CO)N1C[C@H](C)[C@H](CN(C)S(=O)(=O)c2ccc(F)cc2)Oc2ccc(NC(=O)c3ccncc3)cc2C1=O`, the relative growth is inactive: 0.899.

Take `Cc1ccc(S[C@]2(C(=O)NCc3ccccc3)CC(=O)N(C3CCCCC3)[C@@H]2c2ccc(CO)cc2I)cc1`: the relative growth is inactive: 1.02.

With `Cc1ccc(S(=O)(=O)Nc2cccc3c2O[C@@H](CN(C)CC2CC2)[C@@H](C)CN([C@H](C)CO)C3=O)cc1`, the relative growth was inactive: 1.01.

As for `C=CCCN(CC#C[C@H]1Oc2ccccc2S(=O)(=O)N2CCC[C@@H]12)S(=O)(=O)c1ccc(C)cc1`, the relative growth is inactive: 0.97.

Take `CC(C)(C)OC(=O)C[C@H]1C/C=C/CC[C@H](Cc2ccc(F)cc2)C(=O)O[C@H](c2ccccc2)CNC1=O`: the relative growth is inactive: 1.01.

With `Cc1nnc2sc(=S)[nH]n2c1=O`, the relative growth was inactive: 0.999.

As for `C[C@H]1CN([C@@H](C)CO)C(=O)Cc2cc(NC(=O)Nc3ccc(Cl)c(Cl)c3)ccc2O[C@H]1CN(C)S(=O)(=O)c1ccc(Oc2ccccc2)cc1`, the relative growth was inactive: 1.01.

Take `Cn1cccc1[C@@H](CN)N1CCc2ccccc2C1`: the relative growth was inactive: 1.01.

With `C[C@@H]1CCCCO[C@@H](CN(C)C(=O)Nc2ccccc2)[C@H](C)CN([C@@H](C)CO)C(=O)c2cc(NC(=O)Nc3ccc(F)cc3)ccc2O1`, the relative growth is inactive: 1.05.

Consider `C[C@@H]1CN([C@@H](C)CO)C(=O)c2cccc(NC(=O)c3ccc(-c4nccs4)cc3)c2O[C@H]1CN(C)Cc1ccc(Cl)c(Cl)c1`, for which the relative growth was inactive: 1.03.

In the case of `COc1ccc(NC(=O)N(C)C[C@@H]2Oc3ccc(NC(=O)Nc4ccc(C(F)(F)F)cc4)cc3C(=O)N([C@H](C)CO)C[C@H]2C)cc1`, the relative growth was inactive: 1.

Turning to `Cc1ccc(S(=O)(=O)N(C)C[C@H]2OCCCC[C@H](C)Oc3ccc(NC(=O)C4CCCCC4)cc3C(=O)N([C@@H](C)CO)C[C@@H]2C)cc1`, the relative growth is inactive: 1.01.

Turning to `C[C@@H]1CCCCO[C@H](CN(C)Cc2ccc3c(c2)OCO3)[C@H](C)CN([C@@H](C)CO)C(=O)c2cc(NC(=O)Cc3ccccc3)ccc2O1`, the relative growth was inactive: 0.983.

Consider `CC(C)[C@@H](N)c1nccn1C`, for which the relative growth is inactive: 1.01.

On to `Cc1ccc(S(=O)(=O)N2C[C@@H](O)COC[C@@H]3O[C@@H](CC(=O)NCc4ccc(Cl)c(Cl)c4)CC[C@H]32)cc1`, for which the relative growth was inactive: 1.

Turning to `C[C@H](CCC(=O)O)[C@H]1CC[C@H]2[C@@H]3CC=C4C[C@@H](O)CC[C@]4(C)[C@H]3CC[C@]12C` [3beta-HYDROXYCHOL-5-ENIC ACID], the relative growth was inactive: 1.06.

As for `C[C@@H]1CN([C@H](C)CO)C(=O)c2cc(NS(=O)(=O)c3cccs3)ccc2O[C@@H]1CN(C)S(=O)(=O)c1cccs1`, the relative growth is inactive: 1.

Take `C[C@@H]1CN([C@H](C)CO)C(=O)c2cc(NC(=O)CCN3CCOCC3)ccc2O[C@H]1CN(C)C(=O)Nc1ccccc1`: the relative growth was inactive: 0.989.

Regarding `CN(C)CCCNC(=O)C[C@H]1C=C[C@H](NC(=O)Cc2cccnc2)[C@H](CO)O1`, the relative growth was inactive: 0.936.

For `C[C@@H]1CCCCO[C@@H](CN(C)C(=O)Nc2ccc(F)cc2)[C@@H](C)CN([C@@H](C)CO)C(=O)c2cc(NC(=O)Nc3ccc(C(F)(F)F)cc3)ccc2O1`, the relative growth was inactive: 0.983.

As for `Cc1ccc(S(=O)(=O)Nc2ccc3c(c2)C(=O)N([C@H](C)CO)C[C@H](C)[C@@H](CN(C)C(=O)Nc2c(C)noc2C)OCCCC[C@H](C)O3)cc1`, the relative growth is inactive: 0.824.

`C[C@H](CO)N1C[C@H](C)[C@H](CN(C)S(=O)(=O)c2cccs2)Oc2ccc(NC(=O)CCN3CCOCC3)cc2C1=O`: the relative growth is inactive: 1.

On to `C[C@H](CO)N1C[C@H](C)[C@@H](CN(C)S(=O)(=O)c2ccc(F)cc2)Oc2ccc(NS(=O)(=O)c3cn(C)cn3)cc2C1=O`, for which the relative growth was inactive: 1.

`C=CCOC(=O)[C@@H]1[C@@H]2C=C[C@]3(O2)[C@H](C(=O)N(CC=C)Cc2ccccc2)N(c2cccc(Cl)c2CO)C(=O)[C@@H]13`: the relative growth is inactive: 1.02.

For the compound `COCC#Cc1ccc2c(c1)O[C@@H](CN(C)S(=O)(=O)c1cccc(F)c1)[C@@H](C)CN([C@@H](C)CO)S2(=O)=O`, the relative growth is inactive: 1.02.
